Data from patent publication US20090234023A1, “SUBSTITUTED HYDROXYACETOPHENONE DERIVATIVES” (Riemser Arzneimittel AG, priority 2004, published 2009).
Where two headings read alike, the source gives them in different places.

Columns and labels:
[1] = tested on: mamma NCI-ADR (expresses MDR phenotype); details: for ED50 (effective dosage which killed 50% of the human cancer cells): NCIADR, 48 hours incubation
Protocol: All determinations were conducted as threefold determination.

[2] = tested on: MIAPaCa2 pancreas; C205 colon and T47D breast; assay: Additional test of L2 on three tumour lines
Protocol: Moreover, this substance was tested on the following cell lines:
MIAPaCa2 pancreas; C205 colon and T47D breast and for comparison it was tested on the non-pathogenic line: WI38 (fibroblasts).

Structure (SMILES) | cytocidal activity ([1]; NCI-ADR) | ED50 (effective dosage which killed 50% of the human cancer cells) [1] [µg/mL] | activity against the 3 tumour lines [2] | activity against the 3 tumour lines ([2]; listed as 1-[2-Hydroxy-5-(3-methylbut-2-enyl)ethanone)
CC(=O)c1ccccc1OCC=C(C)C [Compound L1, 1-[2-(3-methylbut-2-enyloxy)phenyl]ethanone] | cytocidal activity | 8.0 |  | 
CC(=O)c1cc(CC=C(C)C)ccc1O [Compound L2] |  | 6.0 | selectively active | selective properties
